In patent publication EP1892250A2 (Munin Corporation, dated 2008):

Experiments:
Fisp12 = biological target: T1, Fisp12 (mouse, UniProt P29268 26-348); experiment: solid-phase binding isotherm, varying concentrations of RGD-affinity purified αIIbβ3 on immobilized Fisp12/mCTGF; printed as half-saturation
T1 construct: Recombinant, baculovirus/Sf9, purified from serum-free conditioned medium; also called Fisp12/mCTGF; mCTGF
T1 sequence: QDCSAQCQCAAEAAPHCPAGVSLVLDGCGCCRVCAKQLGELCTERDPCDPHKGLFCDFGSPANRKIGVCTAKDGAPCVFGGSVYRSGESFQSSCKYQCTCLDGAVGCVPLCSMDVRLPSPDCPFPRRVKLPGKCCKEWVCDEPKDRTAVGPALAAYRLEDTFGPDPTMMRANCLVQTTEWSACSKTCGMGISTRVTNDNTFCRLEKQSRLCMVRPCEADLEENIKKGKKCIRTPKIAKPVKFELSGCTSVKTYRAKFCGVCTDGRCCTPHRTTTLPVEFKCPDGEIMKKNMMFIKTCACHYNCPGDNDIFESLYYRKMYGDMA

[1] = biological target: Cyr61 (recombinant, species not stated in the example); experiment: solid-phase binding isotherm, varying concentrations of RGD-affinity purified αIIbβ3 on immobilized Cyr61; printed as half-saturation

B1: activated αIIbβ3 purified from human platelets (receptor)
chain 1: not shown
chain 2: GPNICTTRGVSSCQQCLAVSPMCAWCSDEALPLGSPRCDLKENLLKDNCAPESIEFPVSEARVLEDRPLSDKGSGDSSQVTQVSPQRIALRLRPDDSKNFSIQVRQVEDYPVDIYYLMDLSYSMKDDLWSIQNLGTKLATQMRKLTSNLRIGFGAFVDKPVSPYMYISPPEALENPCYDMKTTCLPMFGYKHVLTLTDQVTRFNEEVKKQSVSRNRDAPEGGFDAIMQATVCDEKIGWRNDASHLLVFTTDAKTHIALDGRLAGIVQPNDGQCHVGSDNHYSASTTMDYPSLGLMTEKLSQKNINLIFAVTENVVNLYQNYSELIPGTTVGVLSMDSSNVLQLIVDAYGKIRSKVELEVRDLPEELSLSFNATCLNNEVIPGLKSCMGLKIGDTVSFSIEAKVRGCPQEKEKSFTIKPVGFKDSLIVQVTFDCDCACQAQAEPNSHRCNNGNGTFECGVCRCGPGWLGSQCECSEEDYRPSQQDECSPREGQPVCSQRGECLCGQCVCHSSDFGKITGKYCECDDFSCVRYKGEMCSGHGQCSCGDCLCDSDWTGYYCNCTTRTDTCMSSNGLLCSGRGKCECGSCVCIQPGSYGDTCEKCPTCPDACTFKKECVECKKFDRGALHDENTCNRYCRDEIESVKELKDTGKDAVNCTYKNEDDCVVRFQYYEDSSGKSILYVVEEPECPKGPDILVVLLSVMGAILLIGLAALLIWKLLITIHDRKEFAKFEEERARAKWDTANNPLYKEATSTFTNITYRGT
notes: mature; also called α11bβ3
In the case of B1, the EC50 (Fisp12) is reported as 15 nM and the EC50 [1] is reported as 25 nM.
